Reference: the supplement of paper PMC3334620
Whole data set: some 33,000 sequences, median “E-score (-0.5 to 0.5)” near -0.035, cut for the highest 2% near 0.34. Some of the results follow.

The sequences below were run against T1, Mot3 (UniProt P54785) (assay: PBM E-score (8-mer binding enrichment) (E-score (-0.5 to 0.5)); higher = stronger / more preferred TF binding; most listed sequences are background and not binding sites). Conditions: protein concentration: 200 nM; construct: GST-full length.
T1 sequence: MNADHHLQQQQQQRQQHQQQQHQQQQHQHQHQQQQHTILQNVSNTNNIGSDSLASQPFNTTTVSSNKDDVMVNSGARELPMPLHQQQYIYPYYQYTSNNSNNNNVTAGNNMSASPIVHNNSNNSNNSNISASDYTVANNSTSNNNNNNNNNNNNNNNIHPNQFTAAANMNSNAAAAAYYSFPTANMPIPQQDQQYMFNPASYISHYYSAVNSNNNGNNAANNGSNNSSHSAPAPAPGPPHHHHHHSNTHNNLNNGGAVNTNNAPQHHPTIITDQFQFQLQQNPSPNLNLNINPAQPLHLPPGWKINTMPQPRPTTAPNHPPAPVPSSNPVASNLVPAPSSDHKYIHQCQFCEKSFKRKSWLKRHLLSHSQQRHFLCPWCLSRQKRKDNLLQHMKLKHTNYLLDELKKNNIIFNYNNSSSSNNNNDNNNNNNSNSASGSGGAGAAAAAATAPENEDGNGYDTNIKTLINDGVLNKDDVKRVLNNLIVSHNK
Procedure: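 Universal 'all 10-mer' protein binding microarrays (Agilent AMADID 015681) probed with GST-tagged S. cerevisiae TFs (full-length or DBD) made by in vitro transcription/translation (PURExpress), about 100-200 nM. Bound TF was detected with fluorescent anti-GST. Each ungapped 8-mer (which stands for itself and its reverse complement) is scored by the PBM enrichment score (E-score), a modified Wilcoxon-Mann-Whitney statistic from -0.5 to +0.5, computed with the Universal PBM Analysis Suite. Scale: above 0.35 generally sequence-specific binding.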

AAACCCCC was tested. Which “PBM E-score” value did it give?
Its value is -0.246.

AGACTTTC was tested. Which “PBM E-score” value did it give?
The value was -0.187.

Which “PBM E-score” value does the source give for CTATCTCA here?
The value was -0.0109.

How did the “PBM E-score” value turn out when ACATAATC was run?
Its value is 0.225.

How did the “PBM E-score” value turn out when CAAGCTTG was run?
The value was 0.00285.

With ATGCCCTG as the sequence, how does the “PBM E-score” value read?
The value was -0.124.

How did the “PBM E-score” value turn out when AGAGGAAT was run?
Its value is 0.0386.

Which “PBM E-score” value does the source give for GATGCGTA here?
The value was 0.124.

For CAGTTCTC, which “PBM E-score” value is on record?
Its value is -0.231.

With ACCTTCTG as the sequence, how does the “PBM E-score” value read?
The value was 0.101.

Which “PBM E-score” value does the source give for AGAGTATA here?
The value was -0.0252.

GAGTTCCC was tested. Which “PBM E-score” value did it give?
Its value is -0.129.

With ATGAGCCG as the sequence, how does the “PBM E-score” value read?
The value was -0.229.

For AGTAGATC, which “PBM E-score” value is on record?
The value was -0.0347.

How did the “PBM E-score” value turn out when CTGAGTGA was run?
Its value is -0.00071.

AAGTCCCA was tested. Which “PBM E-score” value did it give?
The value was -0.24.

For CAACAGTA, which “PBM E-score” value is on record?
The value was 0.154.

AATATTCA was tested. Which “PBM E-score” value did it give?
Its value is 0.0946.

GCTGTCGA was tested. Which “PBM E-score” value did it give?
The value was -0.12.

CACTTACA was tested. Which “PBM E-score” value did it give?
Its value is 0.16.

For CCCTATCC, which “PBM E-score” value is on record?
The value was -0.222.

How did the “PBM E-score” value turn out when AAAGAAAT was run?
Its value is 0.147.

How did the “PBM E-score” value turn out when GGGGCTCA was run?
The value was -0.219.

How did the “PBM E-score” value turn out when AAAAAGCG was run?
Its value is 0.11.

ACCGACAA was tested. Which “PBM E-score” value did it give?
Its value is -0.11.

How did the “PBM E-score” value turn out when CGGGACCA was run?
The value was -0.282.

AATTTCAT was tested. Which “PBM E-score” value did it give?
The value was -0.177.

CATTTGAG was tested. Which “PBM E-score” value did it give?
The value was 0.0703.

CACTGCTG was tested. Which “PBM E-score” value did it give?
Its value is -0.31.

With ATTCCCCG as the sequence, how does the “PBM E-score” value read?
The value was -0.0331.

With AGTTTATG as the sequence, how does the “PBM E-score” value read?
The value was -0.0194.

Which “PBM E-score” value does the source give for TCATGAAA here?
Its value is -0.27.

For GAGCCGGC, which “PBM E-score” value is on record?
Its value is -0.326.

How did the “PBM E-score” value turn out when CGTGAGCC was run?
The value was -0.104.

For CAGTTCGG, which “PBM E-score” value is on record?
Its value is -0.224.

Which “PBM E-score” value does the source give for ATGTGTCG here?
Its value is 0.0871.

For CACCTCTC, which “PBM E-score” value is on record?
Its value is -0.213.

Which “PBM E-score” value does the source give for CTAAGATA here?
The value was 0.0339.

GTTTTCGA was tested. Which “PBM E-score” value did it give?
The value was -0.00025.

For AAAGTTCC, which “PBM E-score” value is on record?
The value was -0.118.

With CATTGGTC as the sequence, how does the “PBM E-score” value read?
The value was -0.138.

Which “PBM E-score” value does the source give for CACAAATC here?
The value was -0.034.

With AACGAAAG as the sequence, how does the “PBM E-score” value read?
Its value is 0.084.

GGGGTGGA was tested. Which “PBM E-score” value did it give?
Its value is -0.364.

With AATGTAGT as the sequence, how does the “PBM E-score” value read?
The value was 0.244.

For ACTTGAGA, which “PBM E-score” value is on record?
Its value is -0.0384.

With TCTACAAA as the sequence, how does the “PBM E-score” value read?
The value was 0.17.

For AACATGTA, which “PBM E-score” value is on record?
Its value is 0.42.

How did the “PBM E-score” value turn out when AATCTTAT was run?
The value was 0.0528.

How did the “PBM E-score” value turn out when ATCAATTA was run?
The value was 0.193.

ACTTTCCG was tested. Which “PBM E-score” value did it give?
Its value is -0.182.

With AGCAATAC as the sequence, how does the “PBM E-score” value read?
The value was 0.117.

For TGTGTGAA, which “PBM E-score” value is on record?
The value was 0.254.

AGGTGGCG was tested. Which “PBM E-score” value did it give?
Its value is -0.167.

ACCTTGGG was tested. Which “PBM E-score” value did it give?
The value was -0.132.

Which “PBM E-score” value does the source give for TCAAACAA here?
Its value is 0.0814.

With ATGTTCTG as the sequence, how does the “PBM E-score” value read?
The value was 0.105.

With CCATTCCG as the sequence, how does the “PBM E-score” value read?
The value was -0.122.

With AAGTCAAG as the sequence, how does the “PBM E-score” value read?
The value was -0.128.

CTTTGAAC was tested. Which “PBM E-score” value did it give?
Its value is -0.158.

With CGGATTGC as the sequence, how does the “PBM E-score” value read?
The value was -0.247.

With AGCGCAAC as the sequence, how does the “PBM E-score” value read?
The value was 0.0365.

Which “PBM E-score” value does the source give for CACTTCAC here?
Its value is 0.011.

AATAAGGC was tested. Which “PBM E-score” value did it give?
Its value is 0.175.

Which “PBM E-score” value does the source give for GAGAAATA here?
The value was 0.0575.

Which “PBM E-score” value does the source give for ATCCAGAA here?
Its value is 0.0867.

For ATCGCCTA, which “PBM E-score” value is on record?
Its value is -0.0997.

For GGGTACCA, which “PBM E-score” value is on record?
The value was -0.0217.

ACAGAGTA was tested. Which “PBM E-score” value did it give?
The value was 0.174.

ATTAAGAA was tested. Which “PBM E-score” value did it give?
The value was 0.161.

For GCATTAGC, which “PBM E-score” value is on record?
The value was -0.23.

CGGTCGAA was tested. Which “PBM E-score” value did it give?
Its value is -0.156.

CAGTCTGA was tested. Which “PBM E-score” value did it give?
Its value is -0.29.

With ATTCTCCC as the sequence, how does the “PBM E-score” value read?
The value was -0.0493.

For GGACCTCC, which “PBM E-score” value is on record?
The value was -0.216.

For CCCGTTTA, which “PBM E-score” value is on record?
The value was 0.187.

CACCCCAA was tested. Which “PBM E-score” value did it give?
The value was -0.014.

How did the “PBM E-score” value turn out when ACAAATAG was run?
Its value is 0.12.

For AAATCGTT, which “PBM E-score” value is on record?
The value was 0.0275.

Which “PBM E-score” value does the source give for CCCTGCCA here?
Its value is -0.199.

With CCAGGCAG as the sequence, how does the “PBM E-score” value read?
The value was -0.119.

Which “PBM E-score” value does the source give for CCGTATAA here?
The value was -0.0706.

Which “PBM E-score” value does the source give for CCGGGGGC here?
The value was -0.235.

How did the “PBM E-score” value turn out when ACAGAGCT was run?
The value was -0.118.

For CAGTCAGA, which “PBM E-score” value is on record?
Its value is -0.198.

Which “PBM E-score” value does the source give for TACCTTAA here?
Its value is 0.239.
